Whole data set: some 33,000 sequences, median “E-score (-0.5 to 0.5)” near -0.054, cut for the highest 2% near 0.39. This is one part of the list.
Target: Ylr278c (UniProt Q05854)
Assay: PBM E-score (8-mer binding enrichment) (E-score (-0.5 to 0.5)); higher = stronger / more preferred TF binding; most listed sequences are background and not binding sites
Settings: protein concentration: 200 nM; construct: GST-DNA-binding domain
Summary of the method: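 Yeast transcription factors carrying a GST tag, as full-length proteins or DNA-binding domains, were produced by PURExpress in vitro transcription/translation. About 100-200 nM protein was applied to universal all-10-mer Agilent arrays, double-stranded by primer extension on fresh or once-stripped slides. Bound protein was detected with fluorescent anti-GST, and scans were normalised with masliner. The Universal PBM Analysis Suite gave each ungapped eight-base word, pooled with its reverse complement, an E-score, a modified Wilcoxon-Mann-Whitney statistic.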

| Sequence | PBM E-score |
| --- | --- |
| TTAACAAA | 0.0882 |
| CGATACAA | 0.088 |
| AGAGAGCA | -0.154 |
| CACAAATA | 0.021 |
| GCGTCGCA | -0.0363 |
| AGGGTGCG | 0.085 |
| CGGGTCCA | 0.0866 |
| CCGCGCGG | 0.433 |
| ACAATACA | -0.101 |
| AGCCAACG | -0.143 |
| AGCGAACT | -0.153 |
| GACATATC | 0.0335 |
| CAGAACAA | -0.0658 |
| CCTCGAGC | -0.0816 |
| CCCAGGAG | -0.188 |
| CCAGGGCA | -0.0733 |
| ACGGGATA | 0.261 |
| AGTACTTA | -0.249 |
| ATAAGGTC | -0.0149 |
| CCCTCGAA | -0.153 |
| GCAACTTA | 0.0425 |
| GTGCTAAA | -0.0505 |
| ACCACTAC | -0.0356 |
| CATAGCCG | 0.23 |
| AATGACCA | -0.0301 |

| Sequence | PBM E-score |
| --- | --- |
| AGTTCGAC | -0.184 |
| CGTGCACA | -0.24 |
| TCGGAAAA | 0.426 |
| GCTCCGCA | 0.377 |
| ATGCATTC | -0.0574 |
| ATAGGGCA | -0.253 |
| CCATACCG | 0.0905 |
| AACAGCAT | -0.0672 |
| GCATGACC | -0.0686 |
| GACCGTCA | -0.141 |
| TATGAATA | -0.0404 |
| AGTACCTA | -0.177 |
| AGTTAACA | 0.0624 |
| GTAAACAC | 0.0225 |
| CACTTTCA | -0.0848 |
| CAACCAGA | -0.13 |
| AGCCTTGG | -0.198 |
| CCCAGAAG | -0.0787 |
| AGAATACT | -0.13 |
| AACTAGTA | -0.204 |
| AAGTGTCC | 0.0928 |
| CAACTAAA | -0.0258 |
| AACGAGTT | -0.0999 |
| CCCATTGA | 0.0934 |
| GCCATCAC | -0.14 |

| Sequence | PBM E-score |
| --- | --- |
| GCACTCTA | -0.0847 |
| ATGTATGA | -0.215 |
| CGAGGCTA | 0.0173 |
| CAAGTAAC | -0.166 |
| AGTCAAAC | 0.00399 |
| GCAAACAA | -0.1 |
| CTCGTTAA | -0.0559 |
| AATTCGGA | 0.449 |
| CAACGTTG | -0.0482 |
| GGCGTCCA | 0.00771 |
| ATCTTTGC | -0.0515 |
| ACGTTTAA | -0.219 |
| ACATAGGG | -0.225 |
| GCTTTACA | 0.0914 |
| CGGATCAG | 0.218 |
| GATAAACA | 0.035 |
| ACGGGTAT | 0.0239 |
| CAACATCG | 0.0687 |
| GGCAACTA | -0.025 |
| CAGGCGCC | 0.046 |
| GCCATAAC | -0.311 |
| AAGCGCAC | 0.117 |
| CTTGATAC | -0.28 |
| GAGCACTC | -0.0164 |
| GGACACCA | 0.0663 |

| Sequence | PBM E-score |
| --- | --- |
| ATGTTAAG | 0.0308 |
| ACGAGCTA | -0.128 |
| GAAATCCC | 0.254 |
| GGTCTGGA | -0.159 |
| ATCGCCAC | -0.0201 |
| AGGATTAC | 0.00998 |
| CTTCCACA | -0.151 |
| CCTAAAAC | -0.125 |
| TACTCATA | -0.285 |
| AACGAAAC | -0.0816 |
| GGCGTCAC | 0.00547 |
| GGGCCCTA | -0.129 |
| AAACTTTG | -0.0242 |
| AACATCTC | 0.0706 |
| GCTCCAAC | 0.0437 |
| GTAACCTA | 0.0773 |
| ACGATCAG | -0.29 |
| CTGAGCCA | -0.102 |
| TGAAAGCA | -0.136 |
| CTGTCTCC | 0.0913 |
| ACGCTCCT | -0.237 |
| TACAGGTA | -0.218 |
| AAATCACT | -0.17 |
| TGCTGAAA | -0.0949 |
| AGCGCATC | -0.0458 |

| Sequence | PBM E-score |
| --- | --- |
| CATCGCGG | 0.231 |
| ATGCCATG | -0.155 |
| CGAGACGA | 0.017 |
| GGCGCCCC | 0.148 |
| ATTAGGCA | -0.151 |
| AGGAATAT | 0.106 |
| AAACCGGC | 0.356 |
| CCTATCAC | -0.119 |
| GCTTGCAC | -0.0733 |
| CAGGTTGC | -0.1 |
| CCGGCTAG | 0.234 |
| GGCCACCC | 0.078 |
| GGGAGAAA | 0.0906 |
| GTGTATTA | -0.013 |
| AGTGCACT | 0.121 |
| ACTGAACT | -0.162 |
| AGGCTGCA | -0.242 |
| GACCTATA | 0.059 |
| CGCAGCCC | 0.173 |
| GGACAGCC | 0.176 |
| GGCCGACA | 0.248 |
| AGCGGCCG | 0.249 |
| CGGCTTCC | 0.244 |
| AACCCTCA | -0.165 |
| GCGCTAGC | -0.164 |

| Sequence | PBM E-score |
| --- | --- |
| CACATTGG | -0.146 |
| ATCAATCA | -0.119 |
| CGGCTGAA | 0.142 |
| ATCTGGAG | 0.0676 |
| TAGGTTGA | -0.212 |
| CCGTGTGC | 0.268 |
| GCAAGACC | 0.0338 |
| CCTTCGGC | 0.112 |
| CGTCCTAC | 0.0768 |
| TCCTTACA | -0.0094 |
| ATAGTAAT | -0.00108 |
| AGACCAGG | -0.143 |
| AGTTACAA | 0.127 |
| ATCTGGAA | -0.0874 |
| CCGTACAC | 0.0043 |
| CAAGGGGG | -0.373 |
| GCCACGCA | -0.115 |
| AAGTGTGA | -0.278 |
| CACGCGTA | -0.00675 |
| AATGCTGC | -0.0877 |
| CTGTACCA | -0.247 |
| ATGACGTG | -0.239 |
| ACGAAGCC | 0.0447 |
| GACCACGA | -0.179 |
| TCTATGCA | -0.232 |

| Sequence | PBM E-score |
| --- | --- |
| ACACTAAG | -0.295 |
| GTGCTAGA | -0.277 |
| GGAAAAAC | 0.275 |
| GGCATTCA | 0.139 |
| GCAGTGAC | 0.0164 |
| AACTAGAT | -0.00368 |
| GACGGCGC | 0.169 |
| AGCGCAAA | -0.0731 |
| GAACATCC | 0.224 |
| CCCATACC | -0.0976 |
| CGTCAAAC | -0.0883 |
| AACCGCTA | -0.104 |
| ATCAATAA | -0.0629 |
| CGCTGCGC | 0.0667 |
| AAGTCGAA | -0.299 |
| CTTTGAAA | -0.201 |
| TCAGTCCA | -0.366 |
| GCTGTCCA | -0.0953 |
| AACCAATT | -0.0198 |
| AAGCTAGT | -0.188 |
| CCAGTTCC | 0.222 |
| TATAGCCA | -0.109 |

— the supplement of paper PMC3334620
